# Assay results from the supplement of paper PMC9046079.
# Counter-ions that a name gives are not always drawn. ± gives the standard deviation of the averaged measurements. The list shows a part of the results.
# Tests used:
# [1] = test system: murine small intestinal organoids (ENR+CD Paneth differentiation); assay: cellular ATP (CellTiter-Glo 3D) relative to plate median (log10 fold change); higher = more viable cells; details: 6 d
# [2] = test system: murine small intestinal organoids (ENR+CD Paneth differentiation); assay: carbachol-stimulated secreted lysozyme activity relative to plate median (log10 fold change); higher = more Paneth cell lysozyme secretion; details: 6 d, carbachol 10 µM
# [3] = test system: murine small intestinal organoids (ENR+CD Paneth differentiation); assay: basal (non-stimulated) secreted lysozyme activity relative to plate median (log10 fold change); higher = more Paneth cell lysozyme secretion; details: 6 d
# 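Wherever basal (non-stimulated) secreted lysozyme activity relative to plate median is given: ISC-enriched organoid precursors grown as 2.5D pseudo-monolayer on Matrigel, compound given on day 0 and day 3, plate values LOESS-normalized before median fold change, three murine donors.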
# 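Wherever cellular ATP (CellTiter-Glo 3D) relative to plate median is given: 2.5D pseudo-monolayer culture of ISC-enriched organoids partly embedded atop Matrigel, compound added on day 0 and again on day 3, per-plate LOESS correction before median fold change.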
SMILES,cellular ATP (log10) ([1]; 0.08 µM),cellular ATP (log10) ([1]; 0.4 µM),cellular ATP (log10) ([1]; 2 µM),cellular ATP (log10) ([1]; 10 µM),carbachol-stimulated secreted lysozyme activity (log10) ([2]; 0.08 µM),carbachol-stimulated secreted lysozyme activity (log10) ([2]; 0.4 µM),carbachol-stimulated secreted lysozyme activity (log10) ([2]; 2 µM),carbachol-stimulated secreted lysozyme activity (log10) ([2]; 10 µM),basal (log10) ([3]; 0.08 µM),basal (log10) ([3]; 0.4 µM),basal (log10) ([3]; 2 µM),basal (log10) ([3]; 10 µM)
CC(=O)Nc1cccc2c1c(Sc1ccc(Cl)cc1)c(C)n2CC(=O)O,0.4 ± 0.25,0.285 ± 0.3,0.0989 ± 0.14,0.238 ± 0.28,0.0085 ± 0.035,0.196 ± 0.22,-0.0256 ± 0.095,0.0241 ± 0.067,0.00925 ± 0.048,0.000913 ± 0.093,0.00127 ± 0.0066,0.0236 ± 0.069
CCCCNc1ncc(-c2ccc(CN3CCOCC3)cn2)c(NC2CCC(O)CC2)n1 (stereo not drawn),0.257 ± 0.077,0.145 ± 0.2,0.109 ± 0.094,-0.0848 ± 0.26,0.0959 ± 0.28,0.198 ± 0.17,0.056 ± 0.026,-0.165 ± 0.3,0.0467 ± 0.14,0.0902 ± 0.13,0.0415 ± 0.015,-0.0579 ± 0.26
COC(=O)C1=C(C#N)NC(C)=C(C(=O)OC(C)C)C1c1cccc([N+](=O)[O-])c1 (stereo not drawn) [Nilvadipine],0.206 ± 0.18,0.135 ± 0.29,0.212 ± 0.26,0.192 ± 0.32,0.0903 ± 0.24,-0.0432 ± 0.0088,-0.074 ± 0.041,-0.0988 ± 0.078,0.0984 ± 0.11,0.00387 ± 0.1,0.0575 ± 0.2,0.00943 ± 0.072
CN1CCC(CNc2ccc3ncc(-c4cccc(OC(F)(F)F)c4)n3n2)CC1 [SGI-1776 free base],-0.396 ± 1.1,0.0712 ± 0.37,0.132 ± 0.15,-0.477 ± 0.43,-0.166 ± 0.42,0.017 ± 0.041,0.0974 ± 0.048,-0.164 ± 0.19,0.000245 ± 0.18,0.0418 ± 0.096,0.0541 ± 0.013,-0.138 ± 0.12
CCCSc1nc(N[C@@H]2C[C@H]2c2ccc(F)c(F)c2)c2nnn([C@@H]3C[C@H](OCCO)[C@@H](O)[C@H]3O)c2n1 [Ticagrelor],-0.0323 ± 0.39,-0.0809 ± 0.34,-0.346 ± 0.6,-0.295 ± 0.55,0.105 ± 0.22,0.142 ± 0.092,0.116 ± 0.073,0.11 ± 0.17,0.0281 ± 0.13,0.0239 ± 0.15,0.0303 ± 0.15,0.0356 ± 0.17
CNC(=C[N+](=O)[O-])NCCSCc1ccc(CN(C)C)o1 [Ranitidine],-0.0569 ± 0.61,0.0593 ± 0.39,-0.121 ± 0.15,-0.312 ± 0.25,-0.064 ± 0.19,-0.0451 ± 0.044,-0.0482 ± 0.11,-0.0862 ± 0.028,-0.0239 ± 0.13,-0.0328 ± 0.081,-0.07 ± 0.013,-0.0682 ± 0.033
CN[C@H]1CC[C@@H](c2ccc(Cl)c(Cl)c2)c2ccccc21 [Sertraline HCl],0.0319 ± 0.28,-0.0203 ± 0.11,0.0156 ± 0.03,-0.152 ± 0.3,-0.148 ± 0.14,-0.0274 ± 0.088,0.0512 ± 0.04,0.108 ± 0.11,-0.0404 ± 0.088,-0.0255 ± 0.07,0.0367 ± 0.079,0.0797 ± 0.14
O=C1C(=O)N(Cc2ccc(Cl)c(Cl)c2)c2ccccc21 [Apoptosis Activator 2],0.304 ± 0.33,0.262 ± 0.27,0.0816 ± 0.037,-0.158 ± 0.32,0.0424 ± 0.06,0.00854 ± 0.014,-0.0181 ± 0.015,-0.313 ± 0.24,0.149 ± 0.064,0.0333 ± 0.084,-0.00566 ± 0.044,-0.199 ± 0.16
O=C(O)C(Cc1ccccc1[N+](=O)[O-])=NNc1nc(-c2ccc(Cl)c(Cl)c2)cs1,-0.16 ± 0.29,-0.131 ± 0.63,0.127 ± 0.13,-0.109 ± 0.23,-0.0575 ± 0.023,0.103 ± 0.0066,-0.0707 ± 0.14,0.0902 ± 0.29,0.11 ± 0.22,0.0362 ± 0.078,0.0686 ± 0.2,-0.0344 ± 0.075
CC(C)OC(=O)OCOP(=O)(CO[C@H](C)Cn1cnc2c(N)ncnc21)OCOC(=O)OC(C)C [Tenofovir Disoproxil Fumarate],0.103 ± 0.11,-0.0228 ± 0.2,-0.492 ± 0.37,-1.03 ± 0.69,0.00518 ± 0.11,0.0238 ± 0.047,-0.218 ± 0.14,-0.465 ± 0.0099,0.0187 ± 0.075,0.0413 ± 0.2,-0.165 ± 0.087,-0.256 ± 0.064
COc1cc2nc(N3CCN(C(=O)C4COc5ccccc5O4)CC3)nc(N)c2cc1OC (stereo not drawn) [Doxazosin Mesylate],0.0716 ± 0.14,-0.0154 ± 0.24,0.146 ± 0.11,0.0748 ± 0.11,0.123 ± 0.093,0.147 ± 0.18,0.0297 ± 0.0078,-0.00315 ± 0.15,0.0728 ± 0.051,0.0445 ± 0.082,0.0474 ± 0.041,0.0391 ± 0.12
CNC(=O)c1ccc2cc([C@@]3(O)CCn4cncc43)ccc2c1 [TAK-700 (Orteronel)],-0.0941 ± 0.09,0.00974 ± 0.16,-0.0631 ± 0.065,-0.0229 ± 0.38,0.00895 ± 0.13,0.195 ± 0.013,0.0631 ± 0.014,0.0479 ± 0.022,0.0431 ± 0.082,0.187 ± 0.26,0.114 ± 0.11,0.0168 ± 0.049
C=CCc1cccc(/C=N/NC(=O)CN2CCN(Cc3ccccc3)CC2)c1O,0.0953 ± 0.15,0.113 ± 0.066,-0.241 ± 0.069,0.00165 ± 0.19,0.123 ± 0.16,0.0223 ± 0.039,-0.0235 ± 0.14,0.0652 ± 0.048,0.157 ± 0.092,0.0525 ± 0.048,0.126 ± 0.12,0.0685 ± 0.021
CC1(C)CCC(c2ccc(Cl)cc2)=C(CN2CCN(c3ccc(C(=O)NS(=O)(=O)c4ccc(N[C@H](CCN5CCOCC5)CSc5ccccc5)c(S(=O)(=O)C(F)(F)F)c4)cc3)CC2)C1 [ABT-263 (Navitoclax)],-0.212 ± 0.3,-0.264 ± 0.17,-0.368 ± 0.27,-0.962 ± 0.11,-0.0755 ± 0.16,-0.000608 ± 0.07,-0.213 ± 0.15,-0.458 ± 0.19,0.012 ± 0.13,0.00709 ± 0.05,-0.143 ± 0.082,-0.259 ± 0.095
CC(=O)OCC(=O)NCCCOc1cccc(CN2CCCCC2)c1 [Roxatidine Acetate HCl],0.0434 ± 0.47,0.128 ± 0.3,0.0603 ± 0.38,-0.13 ± 0.36,-0.133 ± 0.076,-0.0294 ± 0.12,-0.0188 ± 0.17,-0.084 ± 0.13,0.0126 ± 0.13,-0.008 ± 0.094,0.0524 ± 0.095,-0.0368 ± 0.061
CC[C@@H]1C(=O)N(C)c2cnc(Nc3ccc(C(=O)NC4CCN(C)CC4)cc3OC)nc2N1C1CCCC1,0.029 ± 0.18,-0.534 ± 0.39,-0.511 ± 0.49,-1.03 ± 0.64,-0.22 ± 0.087,-0.296 ± 0.064,-0.301 ± 0.028,-0.223 ± 0.055,-0.104 ± 0.061,-0.129 ± 0.1,-0.134 ± 0.068,-0.109 ± 0.064
Nc1nc(N)c2nc(-c3cccc(O)c3)c(-c3cccc(O)c3)nc2n1,-0.301 ± 0.25,0.0821 ± 0.21,-0.00427 ± 0.23,-0.109 ± 0.08,-0.024 ± 0.1,0.0654 ± 0.059,0.0288 ± 0.14,-0.0352 ± 0.071,0.165 ± 0.27,0.0069 ± 0.03,0.017 ± 0.026,-0.00553 ± 0.087
COC(=O)CCSCc1ccc(-c2onc(C)c2NC(=O)OC(C)c2ccccc2Cl)cc1 (stereo not drawn),-0.011 ± 0.22,-0.108 ± 0.11,-0.0325 ± 0.058,0.0219 ± 0.11,0.0351 ± 0.17,0.0365 ± 0.049,-0.000381 ± 0.051,-0.0389 ± 0.064,0.00504 ± 0.011,-0.00876 ± 0.036,0.0596 ± 0.21,-0.103 ± 0.048
COc1ccccc1N1CCN(CC(O)COc2cccc3ccccc23)CC1 (stereo not drawn) [Naftopidil],-0.0389 ± 0.11,-0.161 ± 0.12,-0.179 ± 0.17,-0.132 ± 0.15,-0.0818 ± 0.014,-0.178 ± 0.053,-0.0914 ± 0.024,-0.106 ± 0.027,-0.0373 ± 0.15,-0.0819 ± 0.063,-0.0197 ± 0.055,-0.0733 ± 0.027
N#Cc1c(O)c2c(-c3ccc(-c4ccccc4O)cc3)csc2[nH]c1=O,-0.0743 ± 0.096,0.00687 ± 0.19,-0.127 ± 0.25,-0.0152 ± 0.051,0.122 ± 0.037,0.0559 ± 0.079,0.276 ± 0.33,-0.00681 ± 0.079,0.0452 ± 0.1,0.0688 ± 0.079,0.0543 ± 0.018,0.00856 ± 0.065
N#Cc1ccc(C(c2ccc(C#N)cc2)n2cncn2)cc1 [Letrozole],-0.0129 ± 0.11,0.101 ± 0.11,0.0989 ± 0.17,0.171 ± 0.076,-0.0217 ± 0.031,0.162 ± 0.16,0.000221 ± 0.075,-0.031 ± 0.17,0.0655 ± 0.056,0.128 ± 0.052,0.00936 ± 0.091,-0.00782 ± 0.13
Cc1c(Cl)cccc1Nc1ccccc1C(=O)O [Tolfenamic Acid],0.225 ± 0.19,-0.0128 ± 0.075,-0.0825 ± 0.19,-0.106 ± 0.24,0.0822 ± 0.094,0.0874 ± 0.063,0.131 ± 0.13,-0.0672 ± 0.087,0.0256 ± 0.042,0.0463 ± 0.051,-0.0409 ± 0.018,-0.0267 ± 0.088
C=C1C(=O)O[C@@H]2/C=C(\C)CC/C=C(\C)CC[C@@H]12 [Costunolide],-0.0293 ± 0.26,0.121 ± 0.1,0.05 ± 0.29,0.00793 ± 0.23,0.139 ± 0.024,0.0997 ± 0.093,-0.0706 ± 0.15,-0.0628 ± 0.16,0.131 ± 0.06,0.0672 ± 0.065,-0.0181 ± 0.11,0.0468 ± 0.079
NC(=O)c1cnc(N[C@@H]2CCCC[C@@H]2N)nc1Nc1cccc(-n2nccn2)c1,-0.0925 ± 0.091,0.167 ± 0.079,-0.021 ± 0.33,-0.878 ± 0.84,-0.146 ± 0.083,0.0489 ± 0.11,0.0167 ± 0.47,-0.502 ± 0.066,-0.0722 ± 0.12,0.0186 ± 0.019,-0.0816 ± 0.12,-0.257 ± 0.15
